From the supplement of paper PMC3334620
The full ranking holds about 33,000 sequences; the median of “E-score (-0.5 to 0.5)” is about -0.013, and the highest 2% start at about 0.3. The list shows a part of the results.

Target: T1, Msn1 (UniProt P22148)
T1 sequence: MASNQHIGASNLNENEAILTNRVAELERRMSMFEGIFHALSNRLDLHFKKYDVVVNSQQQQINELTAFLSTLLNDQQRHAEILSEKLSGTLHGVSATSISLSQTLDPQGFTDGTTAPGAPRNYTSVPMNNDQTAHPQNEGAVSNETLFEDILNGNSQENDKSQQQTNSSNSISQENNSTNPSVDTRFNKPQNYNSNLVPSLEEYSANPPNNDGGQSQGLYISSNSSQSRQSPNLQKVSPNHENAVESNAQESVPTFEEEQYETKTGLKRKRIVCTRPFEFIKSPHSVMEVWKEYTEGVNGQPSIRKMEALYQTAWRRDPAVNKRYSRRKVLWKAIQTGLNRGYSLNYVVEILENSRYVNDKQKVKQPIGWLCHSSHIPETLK
Experiment: PBM E-score (8-mer binding enrichment) (E-score (-0.5 to 0.5)); higher = stronger / more preferred TF binding; most listed sequences are background and not binding sites
Details: protein concentration: 200 nM; construct: GST-full length
In short: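 GST-tagged yeast TFs (full-length or DNA-binding domain) were made by PURExpress in vitro transcription/translation and applied at about 100-200 nM to universal all-10-mer Agilent arrays. The arrays were made double-stranded by primer extension, on fresh or once-stripped slides. Bound protein was detected with fluorescent anti-GST, and scans were normalised with masliner. Each ungapped eight-base word, pooled with its reverse complement, received an E-score (modified Wilcoxon-Mann-Whitney statistic) from the Universal PBM Analysis Suite.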

Sequence	PBM E-score
ACCGCCGA	0.035
CTTACAAA	0.0725
GTCACTGA	0.0645
CATCTTCG	-0.0412
ACATGCCT	-0.119
TATTGTCA	0.282
ATTCTGAG	-0.0225
ATTTCACA	0.14
AAACAAGA	0.0687
AGGACTTC	0.243
GTGGAAAA	0.00848
GTGCGAAA	0.0622
AGACCACG	-0.202
CAAAACCC	0.116
AGTAGCAA	0.191
CCAGCGTC	-0.344
CACTCATC	-0.0277
CGCGCCAC	-0.107
AGACCCAA	-0.0078
GGTGAGTA	-0.0822
AGCAGCGC	-0.192
GGTGGTAC	-0.152

Sequence	PBM E-score
AACCAACG	-0.12
TATTTCGA	0.198
AGACACCG	-0.00613
ACCCATGC	-0.0139
TCATCAGA	-0.048
ACGGGGCC	-0.135
CTCGATCC	-0.0388
CTTTAAGC	0.0544
CTCTACCC	-0.123
AAGATCTC	-0.131
GGGAACAC	-0.0262
CGACCAAC	0.113
AATACTAG	0.18
CCTCCCTA	-0.339
CTCAGCTC	-0.216
GATGGAGA	-0.121
ATGACAGC	0.149
GAGGAAGC	-0.263
CAGATGTC	0.347
ACTCCCGG	-0.133
CACACGTC	-0.0386
AAGTCACT	0.0426

Sequence	PBM E-score
AACGGAGC	-0.0993
CCCCGTAC	-0.253
GGCTGCCA	-0.151
ATTGTTCC	0.184
AGGCGGAG	-0.0536
AGTCGGCA	-0.0568
GCGCAGCC	-0.208
AGAGATTG	-0.0815
AGAGCTGA	-0.18
AAGCTCGG	-0.046
ACCGCTTA	-0.0219
CTCCTAAA	-0.216
CAATATTA	0.203
TAGGAAAA	-0.0767
AATCGCTG	-0.0505
CGAATGTA	-0.00301
AATCCCCC	-0.346
GCGGCAAA	-0.184
ATGTAATC	0.031
CGCCATTA	-0.149
CTGCAAAC	-0.122
CAGCAAGA	-0.00404

Sequence	PBM E-score
GACTTGAC	-0.0214
AATGAAGC	0.00995
CCCTGTCC	-0.0435
CCGTCTTA	-0.21
ATGGTCAG	0.0725
TATGAAAA	0.185
GAACTGGA	0.0885
CGCGTGAA	0.00598
AGGATTAA	-0.0123
TGAGCTAA	-0.16
AGAGACAA	0.375
GATAGGCA	-0.0844
CAAACTCC	0.195
GGAGCTAA	-0.248
AACATGGT	0.013
ACAAATGA	0.317
AGACTACT	-0.0193
CGAGCCGC	0.0295
ATCCTAAC	0.0664
AGGTAAGG	-0.00566
